Test results published in PubChem BioAssay AID1461 (National Center for Advancing Translational Sciences (NCATS), 2008).
In all, about 220,000 compounds went through this assay and about 2,300 (1%) were called active. The shares of active, inactive and inconclusive entries below differ from those in the screen. Calls come from the whole dose curve; as a rule, active = well fitted inhibition curve with a large enough effect; inconclusive = small, poorly fitted or top-dose-only effect, or effect the other way; inactive = no such curve, though single readings can be large or run the other way. Potencies of inconclusive entries are left out as doubtful fits.

molecular target: Neuropeptide S receptor (Homo sapiens) (UniProt Q6W5P4); experiment: qHTS Assay for Antagonists of the Neuropeptide S Receptor: cAMP Signal Transduction; conditions: CHO-NPSR cells, cAMP TR-FRET, antagonist mode; activity change, negative = inhibition: at 38.3 µM (top of the series) unless noted; note: nearly all actives have a fitted effect of over 50% in size
Sequence of UniProt Q6W5P4 (Q6W5P4 whole entry, looked up): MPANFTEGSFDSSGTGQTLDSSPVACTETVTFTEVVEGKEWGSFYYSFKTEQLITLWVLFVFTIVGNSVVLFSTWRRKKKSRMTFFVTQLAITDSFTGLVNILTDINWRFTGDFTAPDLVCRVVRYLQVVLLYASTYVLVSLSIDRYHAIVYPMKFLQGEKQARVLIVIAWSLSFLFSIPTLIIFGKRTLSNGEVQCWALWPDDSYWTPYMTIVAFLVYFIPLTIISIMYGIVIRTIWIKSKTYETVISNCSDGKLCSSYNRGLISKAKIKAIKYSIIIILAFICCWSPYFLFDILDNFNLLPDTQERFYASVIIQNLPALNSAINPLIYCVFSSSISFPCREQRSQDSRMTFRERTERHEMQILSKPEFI
% is set by controls: 0 for no effect and ±100 for the full control effect; potency is the fitted concentration of half-maximal effect; tags give direction and shape of the fitted curve.

Row | SMILES | Potency | activity change, negative = inhibition
1 | CC(C)Oc1ccccc1C1Nc2ccccc2C(=O)N1c1ccc2c(c1)OCCO2 (stereo not drawn) | inconclusive [inhibitor, single point] | –
2 | O=[N+]([O-])c1cccnc1N1CCC(c2cc(-c3cccc(C(F)(F)F)c3)n[nH]2)CC1 | inconclusive [inhibitor, single point] | –
3 | COc1ccccc1CNC(=O)COC(=O)C1=COCCO1 | inconclusive [inhibitor, partial curve] | –
4 | CCN1CCN(c2nc3c(C)cccn3c(=O)c2/C=C(\C#N)S(=O)(=O)c2ccc(C)cc2)CC1 | inconclusive [inhibitor, partial curve] | –
5 | O=C1c2ccccc2C(=O)N1CCCCN(C(=O)c1cccc([N+](=O)[O-])c1)c1ccc(Cl)cc1 | inconclusive [inhibitor, single point] | –
6 | CCN1/C(=C/c2ccc3ccccc3[n+]2CC)C=Cc2ccccc21 | active: 7.94 µM | –
7 | N#Cc1nc(-c2cccs2)oc1N1CCN(c2ccccc2)CC1 | inconclusive [inhibitor, partial curve] | –
8 | COc1ccc(-n2nc(C(=O)N3CCN(c4ccc(F)cc4)CC3)c3ccccc3c2=O)c(OC)c1 | inconclusive [inhibitor, single point] | –
9 | COc1ccc(/C=N/NC(=O)c2[nH]c3ccc(Br)cc3c2-c2ccccc2)c(C(=O)O)c1OC | inactive | –
10 | COc1ccccc1N=c1oc2c(OC)cccc2cc1C(=O)NCc1ccco1 | inactive | –
11 | COc1ccc(OC)c(C(O)c2coc3ccc(O)c(CN4CCOCC4)c23)c1 (stereo not drawn) | inconclusive [inhibitor, partial curve, poor fit] | –
12 | Cc1ccc(C)c(NC(=S)c2ccccn2)c1 | inconclusive [inhibitor, single point] | –
13 | O=[N+]([O-])c1ccc(COc2ccc(-c3[nH]ncc3-c3ccc(Cl)cc3)c(O)c2)cc1 | inconclusive [inhibitor, single point] | –
14 | O=S(=O)(CCSc1ccccn1)c1nc2ccccc2s1 | inactive | –
15 | COc1ccc(/C=N\NS(=O)(=O)c2ccc(Cl)cc2)cc1COc1ccccc1[N+](=O)[O-] | inconclusive [inhibitor, partial curve, poor fit] | –
16 | CCc1ccc2c(COC(=O)c3n[nH]c4ccccc34)cc(=O)oc2c1 | inconclusive [inhibitor, partial curve] | –
17 | CCOc1ccc(/C=N/NC(=O)c2[nH]ncc2Br)c(O)c1 | inactive | –
18 | COc1ccc2[nH]c(=O)c(CN(C(=O)c3ccco3)C3CCCCC3)cc2c1 | inconclusive [inhibitor, partial curve, poor fit] | –
19 | COC(=O)c1[nH]c2ccc(C)cc2c1NC(=O)CCN1CCN(C2CCCCC2)CC1 | inconclusive [inhibitor, partial curve, poor fit] | –
20 | CC(C)[C@H](NC(=O)c1ccco1)C(=O)NC12CC3CC(CC(C3)C1)C2 | inactive | –
21 | Cc1cc(=O)oc2cc(NC(=O)c3cc4ccccc4o3)ccc12 | inconclusive [inhibitor, single point] | –
22 | COc1nc(Nc2ccc(C(C)=O)cc2)nc(OC)n1 | inconclusive [inhibitor, single point] | –
23 | CCN(CC)S(=O)(=O)c1ccc2c(c1)nc(SC(C)C(N)=O)n2-c1ccc(OC)cc1 (stereo not drawn) | inconclusive [inhibitor, full curve] | –

Row | SMILES | Potency | activity change, negative = inhibition
24 | COc1cc(/C=N/Nc2nc(=O)[nH]nc2C)cc(OC)c1O | inactive | –
25 | COc1ccc(/C=N/NC(=O)c2cccnc2)cc1CSc1nc2ccccc2s1 | inconclusive [activator, single point] | –
26 | Clc1ccc(-c2nnc(-c3ccccc3Cl)o2)cc1 | inactive | –
27 | O=S(=O)(c1ccccc1)c1cnn(-c2ccccc2)c1-c1ccc(F)cc1 | inconclusive [inhibitor, partial curve] | –
28 | O=C(N/N=C/c1c(Cl)[nH]c2ccccc12)c1sc2ccccc2c1Cl | inconclusive [inhibitor, single point] | –
29 | Cc1cccc(Cn2c(SCCN3CCOCC3)nc3c2c(=O)n(C)c(=O)n3C)c1 | inconclusive [inhibitor, single point] | –
30 | CCCCn1c(NC(=O)c2ccccc2)nc2ccccc21 | inconclusive [inhibitor, partial curve] | –
31 | CC1CCN(C(=O)CSc2nc3[nH]ncc3c(=O)[nH]2)CC1 | inactive | –
32 | Cc1cccc(C)c1NC(=O)C(c1cccs1)N(Cc1ccco1)C(=O)Cn1nnc2ccccc21 (stereo not drawn) | inconclusive [inhibitor, partial curve] | –
33 | CCOC(=O)c1ccc(NC(=S)N2CCN(CCNC3=CC(=O)CC(C)(C)C3)CC2)cc1 | inactive | –
34 | O=C(CN1CCCC(O)C1)N1c2ccccc2Sc2ccc(C(F)(F)F)cc21 (stereo not drawn) | inactive | –
35 | Cc1ccc2nc(/C=C/c3cccc(F)c3)ccc2c1 | inactive | –
36 | Oc1ccc(N=Nc2nccs2)c(O)c1 | inconclusive [activator, full curve, poor fit] | –
37 | Clc1ccc(OCc2nnc(-c3ccccc3Br)o2)cc1 | inconclusive [inhibitor, single point] | –
38 | CC(C)(C)c1ccc(C(=O)CCCSC2=C(C#N)C(c3ccco3)C3=C(CCCC3=O)N2)cc1 (stereo not drawn) | inconclusive [inhibitor, single point] | –
39 | CC(C)N1CC=C2C(C#N)=C(N)C(C#N)(C#N)[C@H](c3ccoc3)[C@H]2C1 | inactive | –
40 | Cc1cc(C)cc(NC(=O)CSc2nnc(-c3ccccc3C)o2)c1 | inconclusive [inhibitor, single point] | –
41 | Nc1nonc1-c1noc(CCCOc2ccc(Cl)cc2Cl)n1 | inconclusive [inhibitor, partial curve] | –
42 | CN(C)CC(CCC(CN(C)C)C(=O)c1ccccc1)C(=O)c1ccccc1 (stereo not drawn) | – | inactive: 1.74% [at 7.67 µM]
43 | C/C(=N\Nc1cc(C)nc(-c2ccccc2O)n1)c1ccccc1O | inconclusive [activator, partial curve] | –
44 | Cc1ccc(-c2nnc(N3CCOCC3)c3ccccc23)cc1S(=O)(=O)NCC1CCCO1 (stereo not drawn) | inconclusive [inhibitor, partial curve, poor fit] | –
45 | Cc1ccc(C(=O)NCCSC(C)(C)C)cc1 | inactive | –
46 | Cc1cc(C)c(C)c(N=Nc2nc3ccccc3n2C)c1C | inconclusive [inhibitor, single point] | –

Row | SMILES | Potency | activity change, negative = inhibition
47 | CN(C)c1ccc(-c2nnn(CC(=O)Nc3ccccc3N3CCOCC3)n2)cc1 | inconclusive [inhibitor, single point] | –
48 | COc1ccc(CN2C(=O)c3ccccc3C2C(=O)NC2CCCC(C)C2C)c(OC)c1 (stereo not drawn) | inconclusive [inhibitor, single point] | –
49 | COc1ccc(CCC2(C)NC(=O)NC2=O)cc1 (stereo not drawn) | inconclusive [inhibitor, single point] | –
50 | Cc1ccc(SCc2cn3cccnc3n2)cc1 | inconclusive [inhibitor, single point] | –
51 | COc1ccc(C(=O)NCC(=O)OCC(=O)N2CCC(C)CC2)cc1OC | inactive | –
52 | Cc1cccc(N(CC(N)=O)C2SC(=O)NC2=O)c1 (stereo not drawn) | inactive | –
53 | COc1ccc2nc(C)cc(C(=O)O)c2c1 | inactive | –
54 | Cc1ccc(-n2cc(CNCCn3nc(C)cc3C)c(-c3ccc(F)cc3)n2)cc1 | inconclusive [activator, single point] | –
55 | COc1ccccc1-c1nnc2sc(COc3ccc(Cl)cc3)nn12 | inconclusive [inhibitor, partial curve, poor fit] | –
56 | CN(C)c1ccc(C(=O)OCC(=O)c2cccs2)cc1 | inactive | –
57 | COc1ccc(CNC(=O)c2cnc(C)cn2)c(OC)c1 | inconclusive [inhibitor, full curve, poor fit] | –
58 | CCc1ccccc1N1C(=O)c2cccc3c(N4CCOCC4)c([N+](=O)[O-])cc(c23)C1=O | inconclusive [inhibitor, single point] | –
59 | CSc1nc2nccc(-c3ccc(-c4ccccc4)cc3)n2n1 | inconclusive [inhibitor, partial curve] | –
60 | N#C/C(=C\c1cccc(O)c1)c1nc2ccccc2o1 | inconclusive [inhibitor, single point] | –
61 | Cc1ccc(C)c(NC(=S)NNC(=O)c2csc3c2CCCC3)c1 | inactive | –
62 | O=C(CN(c1ccccc1)S(=O)(=O)c1ccccc1)NCCSc1nc2ccccc2s1 | inconclusive [inhibitor, partial curve] | –
63 | O=C1/C(=C\c2ccccn2)SC(=S)N1Nc1ncc(C(F)(F)F)cc1Cl | inconclusive [inhibitor, partial curve] | –
64 | COc1ccc(C(=O)Nc2oc(-c3ccccc3)c(-c3ccccc3)c2C#N)cc1 | inconclusive [activator, partial curve] | –
65 | CCN(CC)S(=O)(=O)c1ccc(N2CCOCC2)c(NC(=O)c2ccccc2)c1 | inactive | –
66 | CCOC(=O)c1ccc(N2NC(=O)/C(=C/c3ccc(OC(=O)c4ccco4)c(OC)c3)C2=O)cc1 | inconclusive [inhibitor, single point] | –
67 | Cc1cc(S(=O)(=O)N(Cc2ccc(C(C)C)cc2)CC2CCCO2)ccc1-n1cnnn1 (stereo not drawn) | inconclusive [inhibitor, single point] | –
68 | COc1cccc(-c2cc(C(=O)N3CCCc4ccccc43)no2)c1 | inconclusive [inhibitor, partial curve] | –
